This is one part of the list.
Columns and labels:
Test in all cases: glycan array binding signal (z-score within array); higher = stronger binding
Conditions in all cases: glycan notation: IUPAC condensed, linker removed
[1] = molecular target: Glc(b1-4)Glc(b1-4)Glc(b1-4)Glc(b1-4)Glc(b1-4)Glc(b1-4)Glc
Method in brief: (§1)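 Glycan array data were curated from 3228 arrays in the Consortium for Functional Glycomics database and kept only where the protein sequence was available. Glycan names were converted to IUPAC-condensed notation, and columns mapping to the same glycan were averaged. The binding signal is a within-array Z-score, averaged across arrays of the same protein sequence at different concentrations or buffers and across linkers. Negative Z-scores can be read as non-binding.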

[2] = molecular target: Glc(b1-4)Glc(b1-4)Glc(b1-4)Glc(b1-4)Glc(b1-4)Glc(b1-4)Glc(b1-4)Glc
Method in brief: as §1

[3] = molecular target: Glc(b1-4)Glc(b1-4)Glc(b1-4)Glc(b1-4)Glc(b1-4)Glc(b1-4)Glc(b1-4)Glc(b1-4)Glc
Method in brief: as §1

[4] = molecular target: Glc(b1-4)Glc(b1-4)Glc(b1-4)Glc(b1-4)Glc(b1-4)Glc(b1-4)Glc(b1-4)Glc(b1-4)Glc(b1-4)Glc
Method in brief: as §1

[5] = molecular target: Glc(b1-4)Glc(b1-4)Glc(b1-4)Glc(b1-4)Glc(b1-4)Glc(b1-4)Glc(b1-4)Glc(b1-4)Glc(b1-4)Glc(b1-4)Glc
Method in brief: as §1

[6] = molecular target: Glc(b1-4)Glc(b1-4)Glc(b1-4)Glc(b1-4)Glc(b1-4)Glc(b1-4)Glc(b1-4)Glc(b1-4)Glc(b1-4)Glc(b1-4)Glc(b1-4)Glc
Method in brief: as §1

[7] = molecular target: Glc(b1-4)Glc(b1-4)Glc(b1-4)Glc(b1-4)Glc(b1-4)Glc(b1-4)Glc(b1-4)Glc(b1-4)Glc(b1-4)Glc(b1-4)Glc(b1-4)Glc(b1-4)Glc
Method in brief: as §1

Glc(b1-6)Glc = molecular target: Glc(b1-6)Glc
Method in brief: as §1

Glc(b1-6)Glc(b1-6)Glc = molecular target: Glc(b1-6)Glc(b1-6)Glc
Method in brief: as §1

[8] = molecular target: Glc(b1-6)Glc(b1-6)Glc(b1-6)Glc
Method in brief: as §1

[9] = molecular target: Glc(b1-6)Glc(b1-6)Glc(b1-6)Glc(b1-6)Glc
Method in brief: as §1

[10] = molecular target: Glc(b1-6)Glc(b1-6)Glc(b1-6)Glc(b1-6)Glc(b1-6)Glc
Method in brief: as §1

[11] = molecular target: Glc(b1-6)Glc(b1-6)Glc(b1-6)Glc(b1-6)Glc(b1-6)Glc(b1-6)Glc
Method in brief: as §1

[12] = molecular target: Glc(b1-6)Glc(b1-6)Glc(b1-6)Glc(b1-6)Glc(b1-6)Glc(b1-6)Glc(b1-6)Glc
Method in brief: as §1

GlcA(b1-3)Gal = molecular target: GlcA(b1-3)Gal
Method in brief: as §1

[13] = molecular target: GlcA(b1-3)Gal(b1-3)GlcNAc
Method in brief: as §1

GlcA(b1-3)Gal(b1-4)Glc = molecular target: GlcA(b1-3)Gal(b1-4)Glc
Method in brief: as §1

[14] = molecular target: GlcA(b1-3)Gal(b1-4)GlcNAc(b1-3)Gal(b1-4)Glc
Method in brief: as §1

[15] = molecular target: GlcA(b1-3)Gal(b1-4)GlcNAc(b1-3)Gal(b1-4)GlcNAc(b1-3)Gal(b1-4)Glc
Method in brief: as §1

[16] = molecular target: GlcA(b1-3)GlcNAc(b1-4)GlcA(b1-3)GlcNAc
Method in brief: as §1

[17] = molecular target: GlcA(b1-3)GlcNAc(b1-4)GlcA(b1-3)GlcNAc(b1-4)GlcA(b1-3)GlcNAc(b1-4)GlcA(b1-3)GlcNAc(b1-4)GlcA(b1-3)GlcNAc(b1-4)GlcA(b1-3)GlcNAc(b1-4)GlcA(b1-3)GlcNAc
Method in brief: as §1

[18] = molecular target: GlcA(b1-4)GlcNAc(a1-4)GlcA(b1-4)2,5-Anhydro-Man
Method in brief: as §1

[19] = molecular target: GlcA(b1-4)GlcNAc(a1-4)GlcA(b1-4)GlcNAc(a1-4)GlcA(b1-4)GlcNAc(a1-4)GlcA(b1-4)2,5-Anhydro-Man
Method in brief: as §1

GlcA3S(b1-3)Gal = molecular target: GlcA3S(b1-3)Gal
Method in brief: as §1

GlcA3S(b1-3)Gal(b1-4)Glc = molecular target: GlcA3S(b1-3)Gal(b1-4)Glc
Method in brief: as §1

[20] = molecular target: GlcA3S(b1-3)Gal(b1-4)GlcNAc(b1-3)Gal(b1-4)Glc
Method in brief: as §1

[21] = molecular target: GlcA3S(b1-3)Gal(b1-4)GlcNAc(b1-3)Gal(b1-4)GlcNAc(b1-3)Gal(b1-4)Glc
Method in brief: as §1

GlcNAc(a1-4)Gal = molecular target: GlcNAc(a1-4)Gal
Method in brief: as §1

[22] = molecular target: GlcNAc(a1-4)Gal(b1-3)[Fuc(a1-2)]Gal
Method in brief: as §1

GlcNAc(b1-2)Fuc = molecular target: GlcNAc(b1-2)Fuc
Method in brief: as §1

GlcNAc(b1-2)Man = molecular target: GlcNAc(b1-2)Man
Method in brief: as §1

[23] = molecular target: GlcNAc(b1-2)Man(a1-3)[GlcNAc(b1-2)Man(a1-6)]Man
Method in brief: as §1

[24] = molecular target: GlcNAc(b1-2)Man(a1-3)[GlcNAc(b1-2)Man(a1-6)]Man(b1-4)GlcNAc(b1-4)GlcNAc
Method in brief: as §1

[25] = molecular target: GlcNAc(b1-2)Man(a1-3)[GlcNAc(b1-2)Man(a1-6)]Man(b1-4)GlcNAc(b1-4)[Fuc(a1-6)]GlcNAc
Method in brief: as §1

[26] = molecular target: GlcNAc(b1-2)Man(a1-3)[GlcNAc(b1-2)Man(a1-6)][GlcNAc(b1-4)]Man(b1-4)GlcNAc(b1-4)GlcNAc
Method in brief: as §1

[27] = molecular target: GlcNAc(b1-2)Man(a1-3)[Man(a1-3)[Man(a1-6)]Man(a1-6)][GlcNAc(b1-4)]Man(b1-4)GlcNAc(b1-4)GlcNAc
Method in brief: as §1

[28] = molecular target: GlcNAc(b1-2)[GlcNAc(b1-4)]Man(a1-3)[GlcNAc(b1-2)Man(a1-6)][GlcNAc(b1-4)]Man(b1-4)GlcNAc(b1-4)GlcNAc
Method in brief: as §1

[29] = molecular target: GlcNAc(b1-2)[GlcNAc(b1-4)]Man(a1-3)[GlcNAc(b1-2)[GlcNAc(b1-4)][GlcNAc(b1-6)]Man(a1-6)][GlcNAc(b1-4)]Man(b1-4)GlcNAc(b1-4)GlcNAc
Method in brief: as §1

[30] = molecular target: GlcNAc(b1-2)[GlcNAc(b1-4)]Man(a1-3)[GlcNAc(b1-2)[GlcNAc(b1-6)]Man(a1-6)]Man(b1-4)GlcNAc(b1-4)GlcNAc
Method in brief: as §1

GlcNAc(b1-3)Fuc = molecular target: GlcNAc(b1-3)Fuc
Method in brief: as §1

GlcNAc(b1-3)Gal(b1-4)Glc = molecular target: GlcNAc(b1-3)Gal(b1-4)Glc
Method in brief: as §1

[31] = molecular target: GlcNAc(b1-3)[GlcNAc(b1-6)]Gal
Method in brief: as §1

[32] = molecular target: GlcNAc(b1-3)[GlcNAc(b1-6)]Gal(b1-4)GlcNAc(b1-3)[GlcNAc(b1-6)]Gal(b1-4)GlcNAc(b1-3)Gal(b1-4)Glc
Method in brief: as §1

GlcNAc(b1-4)Fuc = molecular target: GlcNAc(b1-4)Fuc
Method in brief: as §1

GlcNAc(b1-4)GlcNAc = molecular target: GlcNAc(b1-4)GlcNAc
Method in brief: as §1

B1: HysACBM (Streptococcus pneumoniae), Q54873 (protein)
chain: KNLVENGDFGQTEDGSSPWTGSKAQGWSAWVDQKNSADASTRVIEAKDGAITISSHEKLRAALHRMVPIEAKKKYKLRFKIKTDNKIGIAKVRIIEESGKDKRLWNSATTSGTKDWQTIEADYSPTLDVDKIKLELFYETGTGTVSFKDIELVEVADQLS
[1]
  glycan array binding signal (z-score): -0.091
[2]
  glycan array binding signal (z-score): -0.091
[3]
  glycan array binding signal (z-score): -0.091
[4]
  glycan array binding signal (z-score): -0.091
[5]
  glycan array binding signal (z-score): -0.091
[6]
  glycan array binding signal (z-score): -0.091
[7]
  glycan array binding signal (z-score): -0.091
Glc(b1-6)Glc
  glycan array binding signal (z-score): -0.091
Glc(b1-6)Glc(b1-6)Glc
  glycan array binding signal (z-score): -0.091
[8]
  glycan array binding signal (z-score): -0.091
[9]
  glycan array binding signal (z-score): -0.091
[10]
  glycan array binding signal (z-score): -0.091
[11]
  glycan array binding signal (z-score): -0.091
[12]
  glycan array binding signal (z-score): -0.091
GlcA(b1-3)Gal
  glycan array binding signal (z-score): 0.267
[13]
  glycan array binding signal (z-score): -0.091
GlcA(b1-3)Gal(b1-4)Glc
  glycan array binding signal (z-score): -0.091
[14]
  glycan array binding signal (z-score): -0.016
[15]
  glycan array binding signal (z-score): 0.111
[16]
  glycan array binding signal (z-score): -0.091
[17]
  glycan array binding signal (z-score): 21.5
[18]
  glycan array binding signal (z-score): -0.091
[19]
  glycan array binding signal (z-score): -0.091
GlcA3S(b1-3)Gal
  glycan array binding signal (z-score): -0.091
GlcA3S(b1-3)Gal(b1-4)Glc
  glycan array binding signal (z-score): -0.091
[20]
  glycan array binding signal (z-score): -0.079
[21]
  glycan array binding signal (z-score): -0.091
GlcNAc(a1-4)Gal
  glycan array binding signal (z-score): -0.091
[22]
  glycan array binding signal (z-score): -0.091
GlcNAc(b1-2)Fuc
  glycan array binding signal (z-score): -0.091
GlcNAc(b1-2)Man
  glycan array binding signal (z-score): -0.091
[23]
  glycan array binding signal (z-score): -0.091
[24]
  glycan array binding signal (z-score): -0.091
[25]
  glycan array binding signal (z-score): -0.087
[26]
  glycan array binding signal (z-score): 0.111
[27]
  glycan array binding signal (z-score): -0.024
[28]
  glycan array binding signal (z-score): -0.091
[29]
  glycan array binding signal (z-score): 0.047
[30]
  glycan array binding signal (z-score): 0.264
GlcNAc(b1-3)Fuc
  glycan array binding signal (z-score): -0.05
GlcNAc(b1-3)Gal(b1-4)Glc
  glycan array binding signal (z-score): 0.223
[31]
  glycan array binding signal (z-score): -0.091
[32]
  glycan array binding signal (z-score): -0.091
GlcNAc(b1-4)Fuc
  glycan array binding signal (z-score): -0.091
GlcNAc(b1-4)GlcNAc
  glycan array binding signal (z-score): 0.131

— the supplement of paper PMC8728848
